Substitutions are numbered along the chain they refer to. Names may count otherwise. No constants are given. Whether binding was seen depends on the method and setting. Some binding calls cover weakened binding; strength is not graded here. For some of these results: Sequences can lack the tags named with a protein.
Legend:
[1] = biological target: T1, Gal4DBD-Rif2_(1-60) (Rif2 N-terminal region 1-60) (S. cerevisiae) (UniProt Q06208); assay: two-hybrid; strain Y190, growth on synthetic glucose plates with adenine and 3-AT (25 and 50 mM); Gal4DBD-Rif2 fragments against pACT2-RAD50 and its derivatives, Rap1 366-827 or Mre11; WT cells, also cells lacking Mre11 and Xrs2 or the endogenous Rad50
T1 sequence: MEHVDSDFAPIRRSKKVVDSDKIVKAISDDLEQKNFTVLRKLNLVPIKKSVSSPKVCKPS

[2] = biological target: T2, Gal4DBD-Rif2 minimal active motif of 26 residues (1-26) (S. cerevisiae) (UniProt Q06208); assay: as above
T2 sequence: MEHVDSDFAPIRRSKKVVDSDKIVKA

[3] = biological target: T3, full-length Mre11 (S. cerevisiae) (UniProt P32829); assay: as above
T3 sequence: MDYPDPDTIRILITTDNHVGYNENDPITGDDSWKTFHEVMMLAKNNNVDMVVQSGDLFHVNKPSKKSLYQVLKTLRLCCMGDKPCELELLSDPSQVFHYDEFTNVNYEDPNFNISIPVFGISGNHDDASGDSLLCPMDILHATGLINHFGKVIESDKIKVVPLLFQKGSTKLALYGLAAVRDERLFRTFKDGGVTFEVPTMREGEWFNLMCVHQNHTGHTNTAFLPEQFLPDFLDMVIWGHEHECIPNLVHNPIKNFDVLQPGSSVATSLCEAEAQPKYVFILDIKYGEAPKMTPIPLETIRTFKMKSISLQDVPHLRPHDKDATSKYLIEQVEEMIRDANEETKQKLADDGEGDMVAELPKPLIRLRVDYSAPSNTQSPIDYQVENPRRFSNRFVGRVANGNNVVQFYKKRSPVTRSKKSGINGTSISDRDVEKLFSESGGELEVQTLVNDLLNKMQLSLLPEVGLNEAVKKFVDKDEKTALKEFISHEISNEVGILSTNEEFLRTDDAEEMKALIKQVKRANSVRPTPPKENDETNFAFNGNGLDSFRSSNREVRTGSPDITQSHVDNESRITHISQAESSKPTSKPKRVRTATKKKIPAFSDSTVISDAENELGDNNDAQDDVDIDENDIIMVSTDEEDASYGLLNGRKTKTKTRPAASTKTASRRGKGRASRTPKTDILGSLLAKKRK

[4] = biological target: T4, Gal4DBD-Rif2_(1-60) L44A (S. cerevisiae) (UniProt Q06208); assay: as above
T4 sequence: T1 sequence with L44A

[5] = biological target: T5, Gal4DBD-Rif2_(1-36) (Rif2 BAT motif) (S. cerevisiae) (UniProt Q06208); assay: as above
T5 sequence: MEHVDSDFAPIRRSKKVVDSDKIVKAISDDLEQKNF

[6] = biological target: T6, GST-Rif2_(1-60) (S. cerevisiae, UniProt Q06208 1-60); assay: pull-down; GST-Rif2_(1-60), its F8A mutant or GST (10 µg) immobilised on Glutathione Sepharose 4B; Rad50∆CC (30 µg) added in 100 µL 50 mM Tris HCl pH 8, 150 mM NaCl, 1 mM DTT, 0.5 mM EDTA, 10% glycerol, 2 mM MgCl2, benzonase; 120 min at 4 °C; glutathione elution, SDS-PAGE, silver staining; both purified
T6 construct: Rif2, S. cerevisiae, residues 1-60; also called GST-ScRif2_(1-60); Rif2 BAT; source: E. coli BL21 (DE3), purified (GSH Sepharose, Hitrap Heparine)
T6 sequence (looked up): T1 sequence

[7] = biological target: T7, GST-Rif2_(1-60)-F8A (S. cerevisiae) (UniProt Q06208); assay: as above
T7 sequence: T1 sequence with F8A

B1: full-length Rad50 (pACT2-RAD50) (protein, UniProt P12753 1-1312)
chain: MSAIYKLSIQGIRSFDSNDRETIEFGKPLTLIVGMNGSGKTTIIECLKYATTGDLPPNSKGGVFIHDPKITGEKDIRAQVKLAFTSANGLNMIVTRNIQLLMKKTTTTFKTLEGQLVAINNSGDRSTLSTRSLELDAQVPLYLGVPKAILEYVIFCHQEDSLWPLSEPSNLKKKFDEIFQAMKFTKALDNLKSIKKDMSVDIKLLKQSVEHLKLDKDRSKAMKLNIHQLQTKIDQYNEEVSEIESQLNEITEKSDKLFKSNQDFQKILSKVENLKNTKLSISDQVKRLSNSIDILDLSKPDLQNLLANFSKVLMDKNNQLRDLETDISSLKDRQSSLQSLSNSLIRRQGELEAGKETYEKNRNHLSSLKEAFQHKFQGLSNIENSDMAQVNHEMSQFKAFISQDLTDTIDQFAKDIQLKETNLSDLIKSITVDSQNLEYNKKDRSKLIHDSEELAEKLKSFKSLSTQDSLNHELENLKTYKEKLQSWESENIIPKLNQKIEEKNNEMIILENQIEKFQDRIMKTNQQADLYAKLGLIKKSINTKLDELQKITEKLQNDSRIRQVFPLTQEFQRADLEMDFQKLFINMQKNIAINNKKMHELDRRYTNALYNLNTIEKDLQDNQKSKEKVIQLLSENLPEDCTIDEYNDVLEETELSYKTALENLKMHQTTLEFNRKALEIAERDSCCYLCSRKFENESFKSKLLQELKTKTDANFEKTLKDTVQNEKEYLHSLRLLEKHIITLNSINEKIDNSQKCLEKAKEETKTSKSKLDELEVDSTKLKDEKELAESEIRPLIEKFTYLEKELKDLENSSKTISEELSIYNTSEDGIQTVDELRDQQRKMNDSLRELRKTISDLQMEKDEKVRENSRMINLIKEKELTVSEIESSLTQKQNIDDSIRSKRENINDIDSRVKELEARIISLKNKKDEAQSVLDKVKNERDIQVRNKQKTVADINRLIDRFQTIYNEVVDFEAKGFDELQTTIKELELNKAQMLELKEQLDLKSNEVNEEKRKLADSNNEEKNLKQNLELIELKSQLQHIESEISRLDVQNAEAERDKYQEESLRLRTRFEKLSSENAGKLGEMKQLQNQIDSLTHQLRTDYKDIEKNYHKEWVELQTRSFVTDDIDVYSKALDSAIMKYHGLKMQDINRIIDELWKRTYSGTDIDTIKIRSDEVSSTVKGKSYNYRVVMYKQDVELDMRGRCSAGQKVLASIIIRLALSETFGANCGVIALDEPTTNLDEENIESLAKSLHNIINMRRHQKNFQLIVITHDEKFLGHMNAAAFTDHFFKVKRDDRQKSQIEWVDINRVTY
binding [1]: binds | binding [2]: binds | binding [3]: binds | binding [4]: binds | binding [5]: binds

B2: Rad50∆CC-K81E, purified (His-SUMO tag removed) (domain or fragment, UniProt P12753 1-189; P12753 1125-1312)
chain: MSAIYKLSIQGIRSFDSNDRETIEFGKPLTLIVGMNGSGKTTIIECLKYATTGDLPPNSKGGVFIHDPKITGEKDIRAQVELAFTSANGLNMIVTRNIQLLMKKTTTTFKTLEGQLVAINNSGDRSTLSTRSLELDAQVPLYLGVPKAILEYVIFCHQEDSLWPLSEPSNLKKKFDEIFQAMKFTKALDKILCYDDIDVYSKALDSAIMKYHGLKMQDINRIIDELWKRTYSGTDIDTIKIRSDEVSSTVKGKSYNYRVVMYKQDVELDMRGRCSAGQKVLASIIIRLALSETFGANCGVIALDEPTTNLDEENIESLAKSLHNIINMRRHQKNFQLIVITHDEKFLGHMNAAAFTDHFFKVKRDDRQKSQIEWVDINRVTY
binding [6]: no binding (tested: 30 µg Rad50∆CC in 100 µL)

B3: Rad50∆CC, purified (His-SUMO tag removed) (domain or fragment, S. cerevisiae)
chain: B2 chain with E81K
notes: Rad50, S. cerevisiae, N-terminal Head domain, residues 1-189; residues joining the two Head domains in the Rad50∆CC allele; Rad50, S. cerevisiae, C-terminal Head domain, residues 1125-1312; also called Rad50 ATPase Head; Rad50 Head domains; source: E. coli BL21 (DE3), purified (NiNTA, PD10; tag cleaved with His-SUMO-Protease); not shown: His6-SUMO, N-terminal, cleaved
binding [7]: no binding (tested: 30 µg Rad50∆CC in 100 µL)

— publication PMC8115599, “Mechanism of MRX inhibition by Rif2 at telomeres” (Nature Communications, 2021)
